# In PubChem BioAssay (NCATS):
# Values joined by “and” are separate entries in the source; they are usually repeats but may differ in a detail not shown here. Identical values can stand only once. The shares of active, inactive and inconclusive entries below differ from those in the screen. For some of these results: Potencies of inconclusive entries are left out as doubtful fits. Active and inactive are the calls of the source. Unless noted, calls follow the shape of the dose curve; as a rule, active = well fitted curve in the direction sought with a large enough effect; inconclusive = small, poorly fitted or top-dose-only effect, or another doubt; inactive = no such curve, though single readings can be large; an effect the other way counts as inactive or inconclusive.
# Columns and labels:
# [1] = NFAT Signaling Pathway (AID 444; active = well fitted curve in either direction with a large enough effect, not every such curve was filed as active; inconclusive = small, poorly fitted or top-dose-only effect, or another doubt;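 also: carbachol stimulus at about its EC50 of 1 µM final; % is scaled to controls: 0 for no effect and ±100 for the full control effect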); settings: Jurkat NFAT-bla M1, carbachol, beta-lactamase ratio, 5 h
# Summary of the method: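 Jurkat cells with NFAT-driven β-lactamase reporter and co-expressed M1 receptor, stimulated with carbachol (final 1 uM, ~EC50), compound titration, 5 h at 37 °C. CCF4 loaded 1 h at RT; 460/530 nm ratio gave %activity and AC50.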
# [2] = qHTS Assay for Lipid Storage Modulators (AID 1519; calls by dose curve; also: % is scaled to controls: 0 for no effect and ±100 for the full control effect); settings: Drosophila S3 cells, BODIPY lipid droplet/cell ratio, laser cytometry, cells loaded with oleic acid
# Summary of the method: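 Cells seeded at 5,000 per well were treated with compounds over a concentration series and loaded with oleic acid (400 uM, as added). Lipid droplet fluorescence (488 nm excitation, 500-530 nm channel) was read by laser-scanning cytometry and normalized to 20 uM Triacsin C.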
# [3] = qHTS of pediatric cancer cell lines to identify multiple opportunities for drug repurposing: Primary screen for OHS-50 cells (AID 1347103); settings: OHS-50 osteosarcoma viability, CellTiter-Glo luminescence, 48 h; series mostly up to 57.3 µM; also: potency is read from the fitted curve at half-maximal effect; nearly all actives have a fitted effect of over 40% in size
# Summary of the method: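 Cells (500-1,000/well) rested 5 h, then received compounds for 48 h; metabolically active cells were measured by CellTiter-Glo luminescence. Final concentrations spanned up to 46 µM (MIPE, 11-point) or 0.59 nM-46 µM (NPC, 8-point) in primary screens, 11-point in follow-ups.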
# [4] = qHTS of pediatric cancer cell lines to identify multiple opportunities for drug repurposing: Primary screen for RD cells (AID 1347104); settings: RD rhabdomyosarcoma viability, CellTiter-Glo luminescence, 48 h; series mostly up to 46 µM; also: potency is read from the fitted curve at half-maximal effect; nearly all actives have a fitted effect of over 55% in size
# Summary of the method: (§1)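 Luminescence from CellTiter-Glo served as readout of metabolically active cells after 48 h compound exposure. Titrations: MIPE 11-point, from 0.78 nM; NPC 8-point, from 0.59 nM (final). Concentration-response curves came straight from the primary screen.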
# [5] = A High-Content qHTS Against Drug Library for the Identification of Small Molecules that Inhibit DYT1 Early Onset Primary Dystonia-Associated Cell Pathology (AID 1645839; calls by dose curve; also: potency is read from the fitted curve at half-maximal effect); settings: HEK293 Flp-In EGFP-delE TorsinA, punctate imaging, 48 h; series mostly up to 46.1 µM
# Summary of the method: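 Cells were seeded and left for 24 h, then dosed with compound alongside tetracycline induction of mutant EGFP-TorsinA. They were incubated for 48 h, fixed in 4% paraformaldehyde, permeabilized and imaged for mislocalization (%pathology) and cell count.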
# [6] = qHTS of pediatric cancer cell lines to identify multiple opportunities for drug repurposing: Primary screen for Saos-2 cells (AID 1347097); settings: Saos-2 viability, CellTiter-Glo ATP luminescence, 48 h; activity change, negative = cytotoxic: at 46 µM (top of the series); also: potency is read from the fitted curve at half-maximal effect; nearly all actives have a fitted effect of over 40% in size
# Summary of the method: as §1
# [7] = qHTS of pediatric cancer cell lines to identify multiple opportunities for drug repurposing: Primary screen for control Hh wild type fibroblast cells (AID 1347106); settings: Hh wild-type fibroblast viability, CellTiter-Glo luminescence, 48 h; series mostly up to 46 µM;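 also: % is scaled to controls: 0 for no effect and ±100 for the full control effect; a drop in luminescence marks cytotoxicity and a rise apparent proliferation; nearly all actives have a fitted effect of over 55% in size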
# Summary of the method: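 Cells (500-1,000/well) in growth media were settled 5 h at 37 degrees C, then given compounds for 48 h. Viability was read as CellTiter-Glo luminescence. Primary runs used MIPE at 11 points (0.78 nM-46 µM) and NPC at 8 points (0.59 nM-46 µM); follow-ups used 11 points.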
# [8] = system: astro; test: Drug repurposing screens with cells derived from glioblastoma tumor samples (AID 1345199); settings: viability, ATP luminescence, 48 h; series mostly up to 45.9 µM; also: nearly all actives have a fitted effect of over 40% in size; also: potency is read from the fitted curve at half-maximal effect
# Summary of the method: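 Primary testing used CD133+ neurospheres from four GBM patients, seven concentrations, 48 h exposure and ATP-based viability; confirmation added three slower-growing patient lines.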
# [9] = qHTS to identify inhibitors of the type 1 interferon - major histocompatibility complex class I in skeletal muscle: primary screen against the NCATS Mechanism Interrogation Plate v5.0 (MIPE) Libary (AID 1347411); settings: iHSKM cells + IFN-b, HiBiT-tagged MHC-I luminescence, 24 h; activity change, negative = inhibition: at 45.8 µM (top of the series); also: nearly all actives have a fitted effect of over 65% in size; also: potency is read from the fitted curve at half-maximal effect;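 as to activity change, negative = inhibition: plate controls were vehicle for no effect and reference inhibitor for full effect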
# Summary of the method: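 IFN-beta-driven (4 ng/ml) HLA-B-HiBit expression in CRISPR-tagged C25cl48 myoblasts; compounds 11-pt, 1:3, max 46 uM, 24 hr exposure; lytic NanoLuc complementation luminescence.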
# [10] = Quantitative High-Throughput drug screen in 47 multiple myeloma cell lines against the NCATS MIPE library collection: OCIMY7_PLB cell viability assay (AID 1918987); settings: OCI-MY7 myeloma viability, CellTiter-Glo ATP, 48 h; viability (% of DMSO): at 45.8 µM (top of the series); also: potency is read from the fitted curve at half-maximal effect; nearly all actives have a fitted effect of over 65% in size
# Summary of the method: (§2)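 500 cells/well; MIPE 4.0 drugs pin-transferred; 48 h, 37C, 5% CO2. CellTiter-Glo, 5 min RT, luminescence. Controls: DMSO 100%, media 0%.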
# [11] = Quantitative High-Throughput drug screen in 47 multiple myeloma cell lines against the NCATS MIPE library collection: PCM6_Riken cell viability assay (AID 1919870); settings: CellTiter-Glo ATP, 48 h; series mostly up to 45.8 µM; also: nearly all actives have a fitted effect of over 30% in size; also: potency is read from the fitted curve at half-maximal effect
# Summary of the method: as §2
# [12] = Quantitative High-Throughput drug screen in 47 multiple myeloma cell lines against the NCATS MIPE library collection: OPM2_DSMZ cell viability assay (AID 1919872); settings: OPM2 myeloma viability, CellTiter-Glo ATP luminescence, 48 h; series mostly up to 45.8 µM; also: nearly all actives have a fitted effect of over 30% in size; also: potency is read from the fitted curve at half-maximal effect
# Summary of the method: (§3)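 Myeloma cells (500 per well) were exposed to MIPE 4.0 compounds by pin transfer and incubated 48 hours at 37C, 5% CO2. Viability was read as ATP by CellTiter-Glo luminescence, normalised to DMSO (100%) and media-only (0%) wells.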
# [13] = Quantitative High-Throughput drug screen in 47 multiple myeloma cell lines against the NCATS MIPE library collection: AMO1_DSMZ cell viability assay (AID 1918927; also: nearly all actives have a fitted effect of over 30% in size; also: potency is read from the fitted curve at half-maximal effect); settings: AMO1 myeloma cells viability, CellTiter-Glo ATP luminescence, 48 h; series mostly up to 45.8 µM
# Summary of the method: as §3
# [14] = Quantitative High-Throughput drug screen in 47 multiple myeloma cell lines against the NCATS MIPE library collection: OCIMY1_PLB cell viability assay (AID 1918979); settings: OCI-MY1 myeloma viability, CellTiter-Glo ATP, 48 h; series mostly up to 45.8 µM; also: potency is read from the fitted curve at half-maximal effect; nearly all actives have a fitted effect of over 35% in size
# Summary of the method: as §2
# [15] = Quantitative High-Throughput drug screen in 47 multiple myeloma cell lines against the NCATS MIPE library collection: XG1_PLB cell viability assay (AID 1919866); settings: CellTiter-Glo ATP, 48 h; series mostly up to 45.8 µM; also: potency is read from the fitted curve at half-maximal effect; nearly all actives have a fitted effect of over 35% in size
# Summary of the method: as §2
# [16] = Quantitative High-Throughput drug screen in 47 multiple myeloma cell lines against the NCATS MIPE library collection: KMS27_JCRB cell viability assay (AID 1918970); settings: KMS27 myeloma cells, CellTiter-Glo ATP viability, 48 h; viability (% of DMSO): at 45.8 µM (top of the series); also: nearly all actives have a fitted effect of over 30% in size
# Summary of the method: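 ATP-based viability (CellTiter-Glo luminescence) is measured in cells treated 48 h with approved and investigational drugs at 37 °C. Controls are DMSO-only wells for full viability and media-only wells for none.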
# [17] = system: MKL-1; test: qHTS assay to identify novel small-molecules to repurpose for Merkel cell carcinoma treatment (AID 1296009); settings: MCC and control cell lines, CellTiter-Glo viability, 72 h; activity change, negative = cytotoxicity: at 46 µM (top of the series); also: potency is read from the fitted curve at half-maximal effect; nearly all actives have a fitted effect of over 60% in size
# Summary of the method: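 CellTiter-Glo luminescence after 72 hr compound exposure at 37 degree celsius gave cell viability. Libraries NPC and MIPE were run as 8- and 11-point dose responses; RLUs normalized to DMSO (negative) and no-cell (cytotoxicity) controls.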
# [18] = activity change, negative = inhibition: at 57.5 µM (top of the series)
# Tags tell the direction and shape of the fitted curve.
smiles,measurement,setting,value
OC(CCN1CCCCC1)(c1ccccc1)C1CCCCC1 (stereo not given),"activity change, negative = inhibition",[1]; at 17.2 µM (top of the series),active: -77.3%
same,"activity change, negative = inhibition",[2]; [18],inconclusive: 5.03%
same,"activity change, negative = inhibition",[2]; at 57.5 µM (top of the series),inactive: 1.74%
same,Potency,[3],"inconclusive [cytotoxic, partial curve]"
same,Potency,[4],"inconclusive [cytotoxic, single point]"
same,Potency,[5],"inconclusive [inhibitor, partial curve]"
CN1CCN(C2=Nc3ccccc3Oc3ccc(Cl)cc32)CC1,"activity change, negative = inhibition",[1]; at 17.2 µM (top of the series),inconclusive: -55.8% [inhibitor] and active: -75.6%
same,"activity change, negative = inhibition",[1]; at 38 µM (top of the series),inconclusive: -76.2% [inhibitor]
same,Potency,[6],"inconclusive [cytotoxic, partial curve, poor fit]"
same,Potency,[3],"inconclusive [cytotoxic, partial curve]"
same,Potency,[7],inactive
same,Potency,[5],"inconclusive [inhibitor, single point]"
COc1ccccc1O,Potency,[5],inactive
CCC[C@@]1(CCc2ccccc2)CC(O)=C([C@H](CC)c2cccc(NS(=O)(=O)c3ccc(C(F)(F)F)cn3)c2)C(=O)O1,Potency,[8],"inconclusive [inhibitor, single point]"
CC(O)(C#Cc1ccc2c(c1)N(c1nc(N)ncc1Cl)CC2)c1nccs1 (stereo not given),Potency,[6],"inconclusive [cytotoxic, partial curve]"
same,Potency,[9],"inconclusive [inhibitor, partial curve, poor fit]"
same,Potency,[10],active: 2.64 µM
same,Potency,[11],"inconclusive [cytotoxic, partial curve]"
same,Potency,[12],"inconclusive [cytotoxic, single point]"
NCCc1ccc(O)c(O)c1,Potency,[2]; [18],inactive
same,Potency,[6],"inconclusive [cytotoxic, partial curve, poor fit]"
same,Potency,[4],"inconclusive [cytotoxic, partial curve, poor fit]"
same,Potency,[9],inactive
same,Potency,[13],"inconclusive [cytotoxic, partial curve, poor fit]"
same,Potency,[14],"inconclusive [cytotoxic, partial curve]"
same,Potency,[10],"inconclusive [cytotoxic, partial curve, poor fit]"
same,Potency,[15],"inconclusive [cytotoxic, single point]"
same,Potency,[11],"inconclusive [cytotoxic, partial curve, poor fit]"
COc1ccc2c(c1)C(=O)N(CCc1ccc(S(=O)(=O)NC(=O)NC3CCCCC3)cc1)C(=O)C2(C)C,"activity change, negative = inhibition",[1]; at 17.2 µM (top of the series),inconclusive: -32.5% [inhibitor]
same,Potency,[5],"inconclusive [inhibitor, single point]"
same,Potency,[8],inactive
NC(=O)N1c2ccccc2CC(=O)c2ccccc21,Potency,[3],"inconclusive [cytotoxic, partial curve, poor fit]"
same,Potency,[5],"inconclusive [inhibitor, single point]"
same,Potency,[13],inactive
same,Potency,[16],inactive
same,Potency,[14],"inconclusive [rising, full curve, poor fit]"
same,Potency,[10],"inconclusive [rising, full curve, poor fit]"
same,Potency,[11],inactive
same,Potency,[12],inactive
same,Potency,[17],"inconclusive [inhibitor, single point]"
